Results taken from PubChem BioAssay AID720542 (National Center for Advancing Translational Sciences (NCATS), 2013).
Hit rate of the full screen: of about 360,000 compounds, about 740 (0.21%) were called active. Inconclusive means that the source gave no clear call. Such entries were picked first, then a sample of the others. Calls come from the whole dose curve; as a rule, active = well fitted inhibition curve with a large enough effect; inconclusive = small, poorly fitted or top-dose-only effect; inactive = no such curve, though single readings can be large or run the other way. No potency is given beside an inconclusive call; the fits are too rough.

What follows are molecules tested on Plasmodium falciparum AMA1 (3D7) - RON2 peptide interaction (assay: qHTS for Inhibitors of AMA1-RON; Towards Development of Antimalarial Drug Lead: Primary Screen). Conditions: AlphaScreen AMA1-biotinylated RON2 peptide binding; activity change, negative = inhibition: at 58.2 µM (top of the series) unless noted.
Outline: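 AMA1 (3D7) with his tag at 25 nM final met compounds first, then biotinylated RON2 peptide at 25 nM; detection used donor plus acceptor beads, 10 µg/mL apiece, read by AlphaScreen after 30 min at room temperature.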
Note: nearly all actives have a fitted effect of over 45% in size.
Potency is the fitted concentration of half-maximal effect; tags give direction and shape of the fitted curve.
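Throughout, for activity change, negative = inhibition: 0% = vehicle wells and -100% = peptide control.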

Row | Compound | activity change, negative = inhibition | Potency
1 | CCOC(=O)C1=C(O)/C(=C\c2cccs2)N=C1C | inactive: 10.1% | –
2 | Cc1ccccc1CC(=O)N1CCN(C(=O)c2ccco2)CC1 | inactive: -11.2% | –
3 | COc1ccc(-n2ncc3c(N4CCN(Cc5ccccc5)CC4)ncnc32)cc1 | – | inconclusive [inhibitor, single point]
4 | CN(C)c1ccc(C(CNS(=O)(=O)c2ccc(F)c(F)c2)c2c[nH]c3ccccc23)cc1 (centres undefined) | – | active: 14.1 µM
5 | Cc1cc(Br)cn2c(Cc3cccc(Cl)c3)c(-c3ccco3)nc12 | – | inconclusive [inhibitor, partial curve]
6 | O=C(CCC1CCN(Cc2ccc(C#CCCO)cc2)CC1)NC1CC1 | inactive: 10.2% | –
7 | Cc1ccc(C)c(N2CCN(C(=O)c3ccc(CS(=O)(=O)c4ccccc4C)o3)CC2)c1 | inactive: -18.1% | –
8 | COc1ccc(C(CNC(=O)c2[nH]c(C)c(C(C)=O)c2C)N2CCOCC2)cc1 (centres undefined) | inactive: -0.0929% | –
9 | O=[N+]([O-])c1ccc(CN2CCOCCOCCN(Cc3ccc([N+](=O)[O-])cc3)CCOCC2)cc1 | – | inconclusive [inhibitor, partial curve]
10 | COc1ccc2c(c1)NC(c1cc(Cl)cc(Cl)c1O)c1cccn1-2 (centres undefined) | – | inconclusive [inhibitor, single point]
11 | COc1ccccc1-n1nnnc1SCC(=O)NCC1(N2CCOCC2)CCCCC1 | inactive: -6.31% | –
12 | CCc1ccccc1NC(=O)Cn1cccc1C1=NC(c2ccccc2)CO1 (centres undefined) | – | inconclusive [inhibitor, single point]
13 | CC(C)(C)c1ccc(OCC(O)CN2CCN(C(=O)c3ccccc3)CC2)cc1 (centres undefined) | – | inconclusive [inhibitor, partial curve]
14 | COc1ccc(Cc2nnc(N/N=C/c3ccc(O)cc3)[nH]c2=O)cc1OC | – | inconclusive [inhibitor, partial curve]
15 | CCOc1cc(CNCCc2c[nH]c3ccccc23)cc(Cl)c1OCC | – | inconclusive [inhibitor, partial curve]
16 | C(/C=C/c1ccco1)=N/N1CCN(c2ccccc2)CC1 | – | inconclusive [inhibitor, partial curve]
17 | Cc1cc(N=Nc2ccc(Cl)cc2)cc(CN2CCCC2)c1O | – | inconclusive [inhibitor, single point]
18 | CN1OC[C@@H]2CN(S(=O)(=O)c3cccc4ccccc34)[C@H](c3ccc(N4CCCCC4)cc3)C[C@@H]21 | – | inconclusive [inhibitor, partial curve]
19 | COc1ccc(CN2CCC(C)(Oc3ccc(C(C)=O)cc3)C2)c2ccccc12 (centres undefined) | – | inconclusive [inhibitor, single point]
